Results taken from publication PMC4336329 (PLoS ONE, 2015).
Screen size: about 310,000 compounds; about 14,000 (4.5%) showed an effect of 50% or more. The effect is printed as a negative number. This is one part of the list.

The compounds below were run against human ether-à-go-go-related gene (hERG) potassium channel (human, UniProt Q12809) (assay: primary screen, population patch clamp on CHO cells stably expressing hERG).
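Also: peak tail current of the secondary pulse compared with the same well before compound.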

Sequence of human ether-à-go-go-related gene (hERG) potassium channel (Q12809 whole entry, looked up): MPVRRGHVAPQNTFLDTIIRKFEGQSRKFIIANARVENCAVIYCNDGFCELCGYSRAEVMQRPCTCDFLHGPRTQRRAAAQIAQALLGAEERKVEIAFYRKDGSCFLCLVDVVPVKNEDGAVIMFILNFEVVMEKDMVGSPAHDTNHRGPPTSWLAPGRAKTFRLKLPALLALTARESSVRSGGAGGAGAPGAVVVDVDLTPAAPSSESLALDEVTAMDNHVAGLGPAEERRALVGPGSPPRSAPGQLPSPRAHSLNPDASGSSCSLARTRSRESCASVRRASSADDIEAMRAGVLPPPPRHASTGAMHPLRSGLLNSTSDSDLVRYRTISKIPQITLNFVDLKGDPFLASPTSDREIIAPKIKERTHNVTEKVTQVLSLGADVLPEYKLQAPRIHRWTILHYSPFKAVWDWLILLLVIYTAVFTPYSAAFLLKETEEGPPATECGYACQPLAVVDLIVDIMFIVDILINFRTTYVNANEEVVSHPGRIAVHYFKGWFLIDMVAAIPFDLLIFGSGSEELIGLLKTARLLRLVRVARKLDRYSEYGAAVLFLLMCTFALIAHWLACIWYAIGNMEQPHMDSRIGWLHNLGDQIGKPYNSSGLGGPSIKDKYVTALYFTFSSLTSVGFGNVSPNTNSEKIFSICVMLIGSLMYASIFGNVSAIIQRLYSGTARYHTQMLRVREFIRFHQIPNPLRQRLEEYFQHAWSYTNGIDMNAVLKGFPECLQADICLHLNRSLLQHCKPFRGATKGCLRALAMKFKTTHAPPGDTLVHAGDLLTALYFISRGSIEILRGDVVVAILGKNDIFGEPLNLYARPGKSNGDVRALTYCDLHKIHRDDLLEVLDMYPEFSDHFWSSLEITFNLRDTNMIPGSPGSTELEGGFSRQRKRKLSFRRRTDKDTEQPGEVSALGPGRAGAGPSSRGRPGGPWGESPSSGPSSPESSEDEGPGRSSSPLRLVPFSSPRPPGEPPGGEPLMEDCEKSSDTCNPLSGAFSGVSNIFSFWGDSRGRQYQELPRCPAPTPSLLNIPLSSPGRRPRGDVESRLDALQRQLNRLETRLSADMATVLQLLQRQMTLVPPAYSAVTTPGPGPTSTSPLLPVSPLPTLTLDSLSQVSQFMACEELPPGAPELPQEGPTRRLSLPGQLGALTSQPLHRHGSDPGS

Compound | hERG current change (%, negative = inhibition) at 10uM [%]
Cc1onc(-c2ccccc2Cl)c1C(=O)NC(=S)Nc1ccccc1F | 21.9
Clc1ccc(C(c2ccccc2)N2CCN(c3ccccn3)CC2)cc1 (stereo not drawn) | -5.64
CC(=O)N1CCN(S(=O)(=O)c2c(C)n(C)c(=O)n(C)c2=O)CC1 | 20.8
CC1=C(C(=O)Nc2cccnc2)C(c2ccccn2)n2nnnc2N1 (stereo not drawn) | 4.87
CCCCC(=O)Nc1ccc(NC(=O)c2ccc([N+](=O)[O-])cc2Cl)cc1OC | 4.26
COc1ccc(NC(=O)Cc2ccccc2)cc1 | 4.36
C/C(=N\NC(=O)c1ccccn1)c1ccc(C(=O)O)s1 | 6.52
CCCc1nc(NC2CCCCC2)c(C#N)c2c1COC(C)(C)C2 | -1.01
COC(=O)C1=C(c2ccc(OCc3ccccc3)cc2)C[C@@H]2CC[C@H]1N2C(=O)NC1CCN(Cc2ccccc2)CC1 | -1.06
COc1ccc(N2C(=O)CC(N3CCN(S(=O)(=O)c4cc(C)ccc4C)CC3)C2=O)cc1 (stereo not drawn) | -6.8
COc1ccc(CN2CCC(Cc3ccccc3)CC2)cc1OC.O=C(O)C(=O)O | -70.3
COc1ccc(C2Nc3ccccc3C(=O)N2NS(=O)(=O)c2ccc(C)cc2)cc1 (stereo not drawn) | -1.65
Br.Cn1c(=N)n(CC(=O)O)c2ccccc21 | -5.99
O=C1C=CC[C@H](/C=C/C[C@@H](O)C[C@H](O)CCc2ccccc2)O1 | -0.148
Nc1ccccc1C(=O)NCC1(c2ccccc2)CCCC1 | 11.9
CCOCCCN(CCC#N)S(=O)(=O)c1ccc(S(=O)(=O)N2CCCC2)cc1 | 11
CN(Cc1ccccc1)c1ccc(C(CC(N)=O)NC(=O)c2ccc(Br)cc2)cc1[N+](=O)[O-] (stereo not drawn) | -4.62
COCCn1cnnc1SCC(=O)Nc1ccc(Br)cc1F | -1.79
CCN(CC)Cc1oc(CO)cc(=O)c1O | 20.6
C=CCC1NS(=O)(=O)OC(CCCC)C1O (stereo not drawn) | 11.4
O=C(CCCc1ccccc1)Nc1ccc2c(c1)OCCO2 | 10.9
O=C(O)c1ccc(Nc2nc3ccccc3nc2NS(=O)(=O)c2ccc(F)cc2)cc1 | -15.9

Compound | hERG current change (%, negative = inhibition) at 10uM [%]
O=C(NCC1CCCO1)C(c1ccncc1)N(Cc1cccs1)C(=O)CN1C(=O)c2ccccc2S1(=O)=O (stereo not drawn) | 6.46
O=C(COc1ccc(Cl)cc1Cl)NC(=O)c1ccccc1 | 20.1
CCOC(=O)C1CCN(C(=O)c2ccc(OCC(=O)Nc3ccc(OCC)cc3)c(OC)c2)CC1 | -19.5
CC1(c2ccccc2)NC(=O)N(CCN2C(=O)c3ccccc3C2=O)C1=O (stereo not drawn) | 6.96
CCC(=O)NNC(=O)Cc1c(C)n(C(=O)c2ccc(Cl)cc2)c2ccc(OC)cc12 | 10.5
Cc1ccc(Cl)cc1NC(=O)C(NS(=O)(=O)c1cccs1)c1ccccc1 (stereo not drawn) | -3.95
N#CC(c1ccccc1)N(CCCCl)C(=O)c1ccccc1 (stereo not drawn) | -18.9
Cc1ccc(-c2nc3ccsc3c(=O)o2)cc1 | 11.9
Cc1ccc(C(=O)N2C(=S)C(c3ccc(F)cc3)=NC23CCN(C)CC3)cc1 | -40.5
O=C(NCc1ccccc1Cl)C1CCN(S(=O)(=O)N2CCCC2)CC1 | 12.5
O=C(Nc1ccc(F)cc1F)c1ccccc1NC(=O)C1CC=CCC1C(=O)O (stereo not drawn) | 12.1
COc1ccc2c([N+](=O)[O-])c(Cl)[nH]c2c1 | 30.8
C[N+]1(CC2COC(c3ccco3)O2)CCCCC1.[I-] (stereo not drawn) | 17.2
Cc1nc2scc(-c3cccs3)c2c(=O)n1-n1cccc1 | -26.3
Cc1nnc(SCC(=O)NC2CCCC2)n1C(C)C | 9.47
CC(C)(C)c1ccc(C(=O)NCCN2CCCC2)cc1.Cl | -6.48
O=C(OCc1ccc(F)cc1)c1cc2ccccc2cc1O | -13.1
CCc1nc2nc(C)c(NS(=O)(=O)c3ccc(CC(C)C)cc3)c(=O)n2[nH]1 | 9.34
CC(=O)N1CCCc2cc(S(=O)(=O)N3CCCC(C(=O)Nc4cc(C)ccc4C)C3)ccc21 (stereo not drawn) | 17.6
CC[n+]1c(/C=C/Nc2ccccc2)oc2ccccc21.[I-] | -70.4
Cc1cccc(CCNc2nc3ccc(C)cc3n3cnnc23)c1 | 17.3
CCCn1c(-c2nonc2N)nc2ccccc21 | -12.9

Compound | hERG current change (%, negative = inhibition) at 10uM [%]
Cc1c(NS(=O)(=O)c2cc(C(=O)NCC3CCCO3)cc(Cl)c2Cl)c(=O)n(-c2ccccc2)n1C (stereo not drawn) | -18.5
CSc1nc(NS(=O)(=O)c2ccc(F)cc2F)nn1C | 14.9
O=C(NCCN1CCOCC1)c1c(Cl)cccc1Cl | 15.7
CO/N=C/c1cc([N+](=O)[O-])ccc1Sc1ccc(C)cc1 | -4.11
O=C(NCc1ccccc1)c1cc(S(=O)(=O)N2CCCCC2)ccc1N1CCOCC1 | -20.1
C[C@H]1CCC/C=C/C2C[C@H](O)CC2[C@H](O)/C=C/C(=O)O1 (stereo partly drawn) | 14.4
O=C(N/N=C/c1cc([N+](=O)[O-])ccc1O)c1c[nH]c2ccccc12 | 12.6
Cc1cc(NC(=O)CSc2nnc(-c3ccncc3)n2Cc2ccccc2)n(-c2ccccc2)n1 | -58.8
OC(COc1cccc2ccccc12)CN1CCN(c2ccc(Cl)cc2)CC1 (stereo not drawn) | -3.42
Cc1nn(-c2ccccc2)c(N2CCCC2)c1/C=N/NC(=O)c1cc(-c2ccccn2)nc2ccccc12 | -4.44
O=C(Nc1ccc(Cl)cn1)C1CCCN(c2ncnc3c2nc2n3CCCCC2)C1 (stereo not drawn) | -57.7
CCOC(=O)Cn1c(=O)oc2cc(S(=O)(=O)N3CCN(C(=O)c4ccco4)CC3)ccc21 | -12
COc1ccc(NC(=O)c2cc(OC)c(OC)c(OC)c2)cn1 | -10.3
Cc1c(C(=O)O)sc2nc3n(c(=O)c12)CCC3 | 11.3
COc1ccc(CN2CCN(Cc3cc(=O)oc4cc(C)ccc34)CC2)c(OC)c1OC | -80.2
COc1cccc2cc(C(=O)NC3CC4CCC3C4)oc12 (stereo not drawn) | -29.6
S=C(Nc1ccccc1)N1CCC(C2CCN(C(=S)Nc3ccccc3)CC2)CC1 | 4.96
COc1cccc(/C=C2\CCc3ccccc3C2=O)c1 | 24.8
Cc1cc(N2CCOCC2)nc(-c2ccc(Br)cc2)n1 | 1.4
COc1cccc2sc(Nc3nc4ccc(NC(C)=O)cc4s3)nc12 | 23.4
CC(=O)c1ccc(OCC(O)Cn2nnc3ccccc32)cc1 (stereo not drawn) | -0.772
Cc1cc(OCC(=O)N2CCOCC2)c(C(C)C)cc1Cl | -4.17

Compound | hERG current change (%, negative = inhibition) at 10uM [%]
O=c1c2cccnc2[nH]c(=S)n1CCC1=CCCCC1 | -2.28
CC1=CC(C)(C)N(C(=O)c2ccc(F)cc2)c2cc3c(cc21)OCO3 | 0.937
CCO/C=C1/C(=O)N(C)C(=O)c2cc(OC)ccc21 | 13.5
CC(C)n1cc(/C=N/NC(=O)COc2cccc3cccnc23)c2ccccc21 | 8.57
COc1ccc(Cl)cc1NC(=O)CN1CCCC1.Cl | 5.1
O=C(NC1CCCC1)C(c1cc2c(cc1[N+](=O)[O-])OCO2)N1CCCC1 (stereo not drawn) | 20.6
CCOC(=O)c1sc(NC(=O)CCSC)nc1C | -33.1
O=C(Nc1cccnc1)C1(F)C(F)(F)C(F)(F)C(F)(F)C(F)(F)C1(F)F | -1.24
COc1cccc(-c2nn(C)c3sc(C(=O)NCc4ccc(C)o4)cc23)c1 | -11.8
Cc1[nH][nH]c(=O)c1N=Nc1ccc(Br)c(Cl)c1 | 20.4
COc1cc(C(=O)NCc2ccc(C)cc2)ccc1OCc1c(C)noc1C | 0.719
CCOC(=O)c1cnc(SCC(=O)c2ccc3c(c2)OCCO3)nc1N | -2.24
CN(C)C(=O)c1cc(C(=O)c2ccc(C(F)(F)F)cc2)c[nH]1 | 13.6
Cc1ccc(S(=O)(=O)c2ccc(Cl)cc2)cc1S(=O)(=O)N1CCOCC1 | -30.8
C=CCn1c(SCc2nc3sc(C(=O)O)c(C)c3c(=O)[nH]2)nnc1-c1ccc(C(C)(C)C)cc1 | -15.9
COc1cccc(-c2cc(C(=O)Nc3cccnc3)no2)c1 | 7.62
CN(C(=O)c1ccc(Cl)cc1)C1=CCCCC1CCC#N (stereo not drawn) | -9.12
Cc1ccn2c(C(=O)N/N=C\c3ccccc3[N+](=O)[O-])c(C)nc2c1 | -27.2
COc1ccc(NC(=O)C(c2ccccc2)c2ccccc2)c(OC)c1 | 11.5
Cc1cc(OC(C)C(=O)NCC(O)c2ccccc2)c2c3c(c(=O)oc2c1)CCCC3 (stereo not drawn) | -32.9
NS(=O)(=O)c1cc(C(=O)OCC(=O)Nc2ccc(Cl)cc2[N+](=O)[O-])ccc1Cl | -16.7
